In article PMC4336329 (PLoS ONE, 2015):
About 14,000 (4.5%) of roughly 310,000 compounds showed an effect of 50% or more. The effect is printed as a negative number. This is one part of the list.

Molecular target: human ether-à-go-go-related gene (hERG) potassium channel (human, UniProt Q12809)
Experiment: primary screen, population patch clamp on CHO cells stably expressing hERG
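Note: peak tail current of the secondary pulse compared with the same well before compound.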

Sequence of human ether-à-go-go-related gene (hERG) potassium channel (Q12809 whole entry, looked up): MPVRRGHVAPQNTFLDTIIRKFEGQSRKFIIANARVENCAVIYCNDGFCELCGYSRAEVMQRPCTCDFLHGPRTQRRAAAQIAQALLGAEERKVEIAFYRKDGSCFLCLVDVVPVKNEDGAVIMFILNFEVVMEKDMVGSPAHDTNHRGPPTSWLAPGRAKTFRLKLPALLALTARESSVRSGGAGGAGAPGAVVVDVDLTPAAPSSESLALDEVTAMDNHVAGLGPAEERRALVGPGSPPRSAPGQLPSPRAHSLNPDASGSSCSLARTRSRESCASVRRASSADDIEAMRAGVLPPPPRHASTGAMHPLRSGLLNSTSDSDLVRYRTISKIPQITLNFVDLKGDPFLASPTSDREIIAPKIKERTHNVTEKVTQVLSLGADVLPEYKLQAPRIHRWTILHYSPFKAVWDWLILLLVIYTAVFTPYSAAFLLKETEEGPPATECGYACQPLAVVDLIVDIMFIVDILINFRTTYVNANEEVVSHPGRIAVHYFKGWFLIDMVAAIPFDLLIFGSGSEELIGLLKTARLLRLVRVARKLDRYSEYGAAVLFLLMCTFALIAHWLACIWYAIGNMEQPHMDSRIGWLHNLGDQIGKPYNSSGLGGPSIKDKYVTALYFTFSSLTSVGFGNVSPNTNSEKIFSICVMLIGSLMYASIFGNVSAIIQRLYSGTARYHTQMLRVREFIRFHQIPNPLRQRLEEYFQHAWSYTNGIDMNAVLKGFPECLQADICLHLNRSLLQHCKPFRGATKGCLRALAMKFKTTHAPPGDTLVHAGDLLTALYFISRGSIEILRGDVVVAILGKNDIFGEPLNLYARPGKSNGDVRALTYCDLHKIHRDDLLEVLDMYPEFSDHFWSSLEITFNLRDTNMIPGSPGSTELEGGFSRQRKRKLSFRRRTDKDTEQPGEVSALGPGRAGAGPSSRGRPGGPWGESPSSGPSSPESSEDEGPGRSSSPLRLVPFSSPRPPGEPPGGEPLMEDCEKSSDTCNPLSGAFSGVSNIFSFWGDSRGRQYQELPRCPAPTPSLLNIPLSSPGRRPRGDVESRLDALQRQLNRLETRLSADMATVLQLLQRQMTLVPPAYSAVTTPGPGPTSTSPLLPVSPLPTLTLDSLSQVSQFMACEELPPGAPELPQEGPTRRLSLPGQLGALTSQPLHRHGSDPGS

| SMILES | hERG current change (%, negative = inhibition) at 10uM |
| --- | --- |
| NC(=O)CC(NC(=O)Cc1ccc(Br)cc1)c1ccc(N2CCc3ccccc3C2)c([N+](=O)[O-])c1 (stereo not drawn) | -2.08% |
| Cc1occc1C(=O)Nc1c(F)cc(F)cc1Br | -0.341% |
| O=C(CN1CCOCC1)Nc1ccc(-c2nc3ccccc3[nH]2)cc1 | -3.15% |
| O=c1c2ccccc2c(C=Nc2ccc(O)cc2)c(O)n1Cc1ccccc1 | 4.15% |
| NC(=O)c1c(NC(=O)c2ccccc2Cl)sc2c1CCC2 | 15.1% |
| CC(C)(C)c1cnnn1-c1ccc(C=O)cc1 | 9.39% |
| C=CCc1cccc(/C=N/NC(=O)CNc2ccccc2)c1O | -2.16% |
| CCCOC(=O)CSc1nnc(-c2ccccc2Cl)o1 | -27.1% |
| O=C(NCC1CC1)c1ccc2c3n(nc2c1)-c1ccc(Cl)cc1CO3 | -48% |
| CCC(=O)NC(Nc1sc2c(c1C(=O)OC)CCN(C)C2)(C(F)(F)F)C(F)(F)F | -16.5% |
| CCOc1ccccc1OCCCC(=O)Nc1sccc1C(N)=O | -5.75% |
| O=S(Cc1ccc(Br)cc1)Cc1nnc(SCc2c(F)cccc2Cl)n1-c1ccccc1 (stereo not drawn) | -23.1% |
| C1=CC2C3C=CC(C3)C2C1 (stereo not drawn) | 12.1% |
| CCC(Sc1nc(N)c(NC(=O)c2ccc(Br)o2)c(=O)[nH]1)C(=O)O (stereo not drawn) | 15.4% |
| CC1=NNC(=O)C1Cc1ccccc1C (stereo not drawn) | 30.9% |
| CCS(=O)(=O)NC(C)c1nnc2n1-c1ccc(Br)cc1C(c1ccccc1Cl)=NC2 (stereo not drawn) | -30.9% |
| Cc1nnc(NC(=O)C2CCCO2)s1 (stereo not drawn) | 3.17% |
| C(=N\Nc1nc(-c2ccccc2)cs1)/c1ccco1 | -31.7% |
| COc1ccc(C2CC(c3ccccc3)=NN2C(=O)COC(=O)c2nc3nc(C)cc(C)n3n2)cc1 (stereo not drawn) | -7.01% |
| Cc1cc(C)cc(NC(=O)CSc2nc3ccccc3nc2N2CCCC2)c1 | -40.5% |
| Cc1ccccc1OCC(O)Cn1c(N2CCN(c3ccccc3)CC2)nc2c1c(=O)[nH]c(=O)n2C (stereo not drawn) | 1.54% |
| O=c1[nH]c(Cc2ccccc2Cl)nc2ccccc12 | 24.2% |
| Cc1cccc(NC(=O)CN2CCN(CC(=O)Nc3cccc(C)c3)CC2)c1 | -63.7% |

| SMILES | hERG current change (%, negative = inhibition) at 10uM |
| --- | --- |
| COC(=O)CSc1nnc(-c2ccco2)n1Cc1ccco1 | -26.8% |
| CCOc1cccc(/C=N/NC(=O)c2ccc3c(c2)OCCO3)c1O | 15.4% |
| NC(=O)N(N)c1nc(N2CCCC2)nc(N2CCCC2)n1 | 15.3% |
| COc1ccc(O)c(CNc2ccccc2F)c1 | 15.8% |
| CCCOC(=O)/C(=C\c1ccc([N+](=O)[O-])o1)NC(=O)c1ccccc1 | -43.3% |
| S=c1[nH]ncn1/N=C/c1ccc(Br)cc1 | 11.1% |
| O=C(CN1CC(=O)Oc2ccccc21)OCC(=O)c1ccccc1 | 3.85% |
| COc1ccccc1OCC(=O)Nc1c2c(nn1-c1ccc(C)cc1)CS(=O)(=O)C2 | -16.9% |
| O=c1[nH]n(-c2ncnc3c2cnn3-c2ccccc2)c(=O)c2ccccc12 | 3.3% |
| CC1CCN(C(=O)CSCC(=O)Nc2nc(-c3cccs3)cs2)CC1 | -20.6% |
| Cc1ccc(C(=O)Nc2cc3[nH]c(=O)oc3cc2C)cc1 | 1.6% |
| CCCc1cc(C(=O)Nc2cccc(Cl)c2)no1 | -25.9% |
| CC(C)(C)NC(=O)C(c1ccccc1)N(Cc1ccco1)C(=O)c1csnn1 (stereo not drawn) | 10.4% |
| COc1cc(-n2ccnc2SC)c(Cl)cc1Cl | -3.29% |
| CC(=O)Nc1ccc(N=Nc2c(C)[nH]n(C(N)=S)c2=O)cc1 | 19.8% |
| O=C(Cc1ccc(F)cc1)NCCc1ccc(F)cc1 | -18.5% |
| CCC(=O)n1nc(-c2cccnc2)nc1NCc1cccs1 | 12.8% |
| COc1ccc(/C=C(\C#N)C(=O)OCC(=O)NCc2ccccc2)cc1 | 9.29% |
| Fc1ccccc1CSCc1nc2ccccc2[nH]1 | -5.57% |
| CC(=O)Nc1ccc(S(=O)(=O)N(C)CC(=O)NC2CCCC(C)C2C)cc1 (stereo not drawn) | -5.36% |
| Cc1ccc(N=C2NC(=O)/C(=C\c3ccco3)S2)cc1 | -7.17% |
| C=CCOc1nc(-c2ccncc2)nc2ccccc12 | 3.6% |
| COc1ccc(S(=O)(=O)NCCc2cn3nc(C)c(C)nc3n2)cc1F | 3.38% |

| SMILES | hERG current change (%, negative = inhibition) at 10uM |
| --- | --- |
| COc1ccc(N(CC(=O)N2CCN(Cc3ccccc3)CC2)S(=O)(=O)c2ccccc2)cc1 | -26.3% |
| O=C(CSc1nnc(Cc2cc(=O)[nH]c(=O)[nH]2)n1-c1ccccc1)N1CCCc2ccccc21 | 8.49% |
| COc1ccc(NS(=O)(=O)c2cn(C)c(=O)n(C)c2=O)cc1 | -0.328% |
| COc1ccc(OC)c(/C=N/NC(=O)c2ccc3nc[nH]c3c2)c1 | 4.22% |
| COC(=O)CSc1nnc(CNC(=O)c2ccccc2F)n1-c1ccccc1 | 9.62% |
| CCCC(c1nnnn1Cc1ccco1)N1CCN(c2cc(Cl)ccc2C)CC1.Cl (stereo not drawn) | -0.973% |
| O=S(=O)(/C=C/c1ccccc1)N1CCc2ccccc2C1 | 21.4% |
| CN(C(=O)COC(=O)CCC(=O)c1ccc(Cl)cc1)c1c(N)n(Cc2ccccc2)c(=O)[nH]c1=O | -17.7% |
| Cc1cc2occ(CC(=O)N(CCC(C)C)c3c(N)n(Cc4ccccc4)c(=O)[nH]c3=O)c2cc1C | -8.34% |
| Cc1c(NC(=O)c2ccccc2NC(=O)COc2ccccc2)cccc1C(=O)O | 14.2% |
| CCOC(=O)c1c(NC(=O)CSc2nnc(-c3ccco3)o2)sc(C)c1C | -12.6% |
| CC1=CCC2C(=O)N(c3ccc(C)cc3)C(=O)C2C1 (stereo not drawn) | -4.42% |
| Cc1cc(C)n(CC(C)NCc2cn[nH]c2-c2cccc3ccccc23)n1 (stereo not drawn) | -43.9% |
| CCc1ccc2[nH]c(=O)c(CN(CCCO)C(=O)NCc3ccccc3)cc2c1 | -13% |
| CCCn1c(SCC(=O)NC2CCCCC2)nnc1-c1ccncc1 | 4.24% |
| CSc1ccc(S(=O)(=O)Nc2ccc(NC(C)=O)cc2)cc1 | -11.3% |
| Cc1ccc(OCCCCCCN2CCNCC2)c(Br)c1.O=C(O)C(=O)O | -30.3% |
| Brc1ccc(C2=CSC3=NCCN23)cc1 | -29.5% |
| COc1ccc2oc(C(=O)OCC(=O)N3CCC(C)CC3)c(C)c2c1 | -0.112% |
| CCOC(=O)c1ccc2nc(NC(=O)c3ccco3)sc2c1 | 9.53% |
| CN1CCN(CC(=O)C23CC4CC(CC(C4)C2)C3)CC1.Cl | -5.5% |
| Cc1[nH]c2ccccc2c1-c1nc2ccccc2[nH]c1=O | 16.6% |
| COCCCn1c(=O)c2sccc2n2c(CCCC(=O)NCC3CCCO3)nnc12 (stereo not drawn) | 15.7% |

| SMILES | hERG current change (%, negative = inhibition) at 10uM |
| --- | --- |
| CN(Cc1ccccc1)C(=O)c1ncn(Cc2ccccc2)c1C(=O)N(C)Cc1ccccc1 | -38.9% |
| COc1ccc(N2C(=NC(=O)CC3CCCCC3)SC3CS(=O)(=O)CC32)cc1 (stereo not drawn) | 19.5% |
| Cn1ncc(Cl)c1C(=O)N1CCN(C23CC4CC(CC(C4)C2)C3)CC1 | -28.9% |
| COC(=O)[C@H](c1ccccc1Cl)N1CCc2sccc2C1 | 8% |
| O=C(N/N=C/c1ccco1)C1COc2ccccc2O1 (stereo not drawn) | -8.58% |
| Cc1nc2ccc(S(=O)(=O)NCC(=O)N(C)Cc3ccccc3)cc2s1 | 17.8% |
| Cc1ccc(N=Cc2ccc[nH]2)c(O)c1 | 8.49% |
| CCOc1ccc(CNC(=O)CCS(=O)(=O)c2ccc3c(c2)oc(=O)n3C)cc1 | 18.4% |
| CCOc1ccc(N(CC(=O)NC2CCCCCC2)S(=O)(=O)c2ccccc2)cc1 | -5.41% |
| CCc1nc2sc3c(=O)n(N)cnc3c2c2c1COC(C)(C)C2 | 5.96% |
| CCCS(=O)(=O)c1c(S(=O)(=O)CCC)c2cc(-c3ccncc3)ccn2c1C(=O)OC | -50.2% |
| CCn1c(SCC(=O)NNC(=O)c2ccc(C)cc2)nnc1-c1ccncc1 | -0.879% |
| COc1ccc(OC)c(-c2cc(C(=O)NCCN3CCOCC3)no2)c1 | -5% |
| O=c1c2ccccc2oc2nc3n(c(=O)c12)CCCS3 | -8.62% |
| O=C(CSc1cn(CCNC(=O)c2cccs2)c2ccccc12)NC1CCCCC1 | -18.4% |
| Cc1ccc(S(=O)(=O)N2CCN(C(=O)CN3C(=O)CNC3=O)CC2)cc1 | 2.55% |
| O=C1/C(=C/c2cccnc2)SC(=S)N1N1CCOCC1 | 5.68% |
| O=C(Nc1ccccc1)NC1CCN(Cc2ccccc2)CC1 | -39.4% |
| CC(=O)c1ccc(N2CCN(c3ncccn3)CC2)c([N+](=O)[O-])c1 | -32.5% |
| O=C(C1CCCN(c2ncccn2)C1)N1CCc2ccccc21 (stereo not drawn) | -9.4% |
| Cc1cccc(NS(=O)(=O)c2ccc(C)c(C(=O)NCc3ccncc3)c2)c1 | -13.6% |
